In the supplement of paper PMC8728848:
This is one part of the list.

Legend:
Assay in all cases: glycan array binding signal (z-score within array); higher = stronger binding
Conditions in all cases: glycan notation: IUPAC condensed, linker removed
[1] = target: Neu5Ac(a2-3)Gal(b1-4)GlcNAc(b1-3)Gal(b1-4)[Fuc(a1-3)]GlcNAc
Procedure, shortened: (§1)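 From the Consortium for Functional Glycomics database, 3228 arrays were curated, keeping only those whose protein sequence was available. Binding is given as a within-array Z-score averaged across arrays sharing a protein sequence and across linkers. Negative Z-scores can be read as non-binding.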

[2] = target: Neu5Ac(a2-3)Gal(b1-4)GlcNAc(b1-3)GalNAc
Procedure, shortened: as §1

[3] = target: Neu5Ac(a2-3)Gal(b1-4)GlcNAc(b1-3)[Neu5Ac(a2-3)Gal(b1-4)GlcNAc(b1-6)]GalNAc
Procedure, shortened: as §1

[4] = target: Neu5Ac(a2-3)Gal(b1-4)GlcNAc(b1-6)GalNAc
Procedure, shortened: as §1

[5] = target: Neu5Ac(a2-3)Gal(b1-4)GlcNAc(b1-6)[Gal(b1-3)]GalNAc
Procedure, shortened: as §1

[6] = target: Neu5Ac(a2-3)Gal(b1-4)GlcNAc(b1-6)[Neu5Ac(a2-3)Gal(b1-3)]GalNAc
Procedure, shortened: as §1

[7] = target: Neu5Ac(a2-3)Gal(b1-4)GlcNAc6S
Procedure, shortened: as §1

[8] = target: Neu5Ac(a2-3)Gal(b1-4)[Fuc(a1-3)]GlcNAc
Procedure, shortened: as §1

[9] = target: Neu5Ac(a2-3)Gal(b1-4)[Fuc(a1-3)]GlcNAc(b1-2)Man
Procedure, shortened: as §1

[10] = target: Neu5Ac(a2-3)Gal(b1-4)[Fuc(a1-3)]GlcNAc(b1-3)Gal
Procedure, shortened: as §1

[11] = target: Neu5Ac(a2-3)Gal(b1-4)[Fuc(a1-3)]GlcNAc(b1-3)Gal(b1-4)GlcNAc
Procedure, shortened: as §1

[12] = target: Neu5Ac(a2-3)Gal(b1-4)[Fuc(a1-3)]GlcNAc(b1-3)Gal(b1-4)[Fuc(a1-3)]GlcNAc(b1-3)Gal(b1-4)[Fuc(a1-3)]GlcNAc
Procedure, shortened: as §1

[13] = target: Neu5Ac(a2-3)Gal(b1-4)[Fuc(a1-3)]GlcNAc(b1-3)GalNAc
Procedure, shortened: as §1

[14] = target: Neu5Ac(a2-3)Gal(b1-4)[Fuc(a1-3)]GlcNAc(b1-6)[Gal(b1-3)]GalNAc
Procedure, shortened: as §1

[15] = target: Neu5Ac(a2-3)Gal(b1-4)[Fuc(a1-3)]GlcNAc(b1-6)[Neu5Ac(a2-3)Gal(b1-3)]GalNAc
Procedure, shortened: as §1

[16] = target: Neu5Ac(a2-3)Gal(b1-4)[Fuc(a1-3)]GlcNAc6S
Procedure, shortened: as §1

[17] = target: Neu5Ac(a2-3)Gal6S(b1-4)GlcNAc
Procedure, shortened: as §1

[18] = target: Neu5Ac(a2-3)Gal6S(b1-4)[Fuc(a1-3)]GlcNAc
Procedure, shortened: as §1

Neu5Ac(a2-3)GalNAc = target: Neu5Ac(a2-3)GalNAc
Procedure, shortened: as §1

[19] = target: Neu5Ac(a2-3)GalNAc(b1-4)GlcNAc
Procedure, shortened: as §1

[20] = target: Neu5Ac(a2-3)[GalNAc(b1-4)]Gal(b1-4)Glc
Procedure, shortened: as §1

[21] = target: Neu5Ac(a2-3)[GalNAc(b1-4)]Gal(b1-4)GlcNAc
Procedure, shortened: as §1

[22] = target: Neu5Ac(a2-3)[GalNAc(b1-4)]Gal(b1-4)GlcNAc(b1-3)GalNAc
Procedure, shortened: as §1

[23] = target: Neu5Ac(a2-3)[Neu5Ac(a2-6)]GalNAc
Procedure, shortened: as §1

Neu5Ac(a2-6)Gal = target: Neu5Ac(a2-6)Gal
Procedure, shortened: as §1

[24] = target: Neu5Ac(a2-6)Gal(b1-3)GlcNAc(b1-3)[Gal(b1-4)GlcNAc(b1-6)]Gal(b1-4)Glc
Procedure, shortened: as §1

Neu5Ac(a2-6)Gal(b1-4)Glc = target: Neu5Ac(a2-6)Gal(b1-4)Glc
Procedure, shortened: as §1

[25] = target: Neu5Ac(a2-6)Gal(b1-4)GlcNAc
Procedure, shortened: as §1

[26] = target: Neu5Ac(a2-6)Gal(b1-4)GlcNAc(b1-2)Man
Procedure, shortened: as §1

[27] = target: Neu5Ac(a2-6)Gal(b1-4)GlcNAc(b1-2)Man(a1-3)Man(b1-4)GlcNAc(b1-4)GlcNAc
Procedure, shortened: as §1

[28] = target: Neu5Ac(a2-6)Gal(b1-4)GlcNAc(b1-2)Man(a1-3)[Gal(b1-4)GlcNAc(b1-2)Man(a1-6)]Man(b1-4)GlcNAc(b1-4)GlcNAc
Procedure, shortened: as §1

[29] = target: Neu5Ac(a2-6)Gal(b1-4)GlcNAc(b1-2)Man(a1-3)[GlcNAc(b1-2)Man(a1-6)]Man(b1-4)GlcNAc(b1-4)GlcNAc
Procedure, shortened: as §1

B1: UEA-I (Ulex europaeus), P22972 (protein)
chain: SDDLSFKFKNFSQNGKDLSFQGDASVIETGVLQLNKVGNNLPDETGGIARYIAPIHIWNCNTGEVASFITSFSFFMETSANPKAATDGLTFFLAPPDSPLRRAGGYFGLFEDTKDNDSSYQTVAVEFDTIGSPVNFDDPGFPHIGIDVNRVKSINAERWNKRYGLNNVANVEIIYEASSKTLTASLTYPSDQTSISVTSIVDLKEILPEWVSVGFSGGTYIGRQATHEVLNWYFTSNLINTNS
glycan array binding signal (z-score) [1]: -0.093 | glycan array binding signal (z-score) [2]: -0.22 | glycan array binding signal (z-score) [3]: -0.163 | glycan array binding signal (z-score) [4]: -0.243 | glycan array binding signal (z-score) [5]: 0.071 | glycan array binding signal (z-score) [6]: -0.233 | glycan array binding signal (z-score) [7]: -0.222 | glycan array binding signal (z-score) [8]: -0.199 | glycan array binding signal (z-score) [9]: -0.129 | glycan array binding signal (z-score) [10]: -0.243 | glycan array binding signal (z-score) [11]: -0.115 | glycan array binding signal (z-score) [12]: -0.167 | glycan array binding signal (z-score) [13]: 0.004 | glycan array binding signal (z-score) [14]: 0.049 | glycan array binding signal (z-score) [15]: -0.078 | glycan array binding signal (z-score) [16]: -0.163 | glycan array binding signal (z-score) [17]: -0.2 | glycan array binding signal (z-score) [18]: -0.136 | glycan array binding signal (z-score) (Neu5Ac(a2-3)GalNAc): -0.253 | glycan array binding signal (z-score) [19]: -0.247 | glycan array binding signal (z-score) [20]: -0.216 | glycan array binding signal (z-score) [21]: -0.194 | glycan array binding signal (z-score) [22]: 0.026 | glycan array binding signal (z-score) [23]: -0.245 | glycan array binding signal (z-score) (Neu5Ac(a2-6)Gal): -0.193 | glycan array binding signal (z-score) [24]: -0.117 | glycan array binding signal (z-score) (Neu5Ac(a2-6)Gal(b1-4)Glc): -0.161 | glycan array binding signal (z-score) [25]: -0.206 | glycan array binding signal (z-score) [26]: -0.112 | glycan array binding signal (z-score) [27]: -0.227 | glycan array binding signal (z-score) [28]: -0.197 | glycan array binding signal (z-score) [29]: -0.21
